Experimental data published in publication PMC7294946.
These are yes or no findings as the source states them, for the method shown. For some of these results: In cells and extracts the contact can be indirect. Some entries that bind do so weakly or less than the wild type. Each block holds one substance with its values, some of them ahead of it.

Protein sequences, listed by entry. Tags and fused reporters are not part of them. Lines headed by an entry give the natural chain unless they say otherwise; changes in a name come on top.
UniProt Q01196: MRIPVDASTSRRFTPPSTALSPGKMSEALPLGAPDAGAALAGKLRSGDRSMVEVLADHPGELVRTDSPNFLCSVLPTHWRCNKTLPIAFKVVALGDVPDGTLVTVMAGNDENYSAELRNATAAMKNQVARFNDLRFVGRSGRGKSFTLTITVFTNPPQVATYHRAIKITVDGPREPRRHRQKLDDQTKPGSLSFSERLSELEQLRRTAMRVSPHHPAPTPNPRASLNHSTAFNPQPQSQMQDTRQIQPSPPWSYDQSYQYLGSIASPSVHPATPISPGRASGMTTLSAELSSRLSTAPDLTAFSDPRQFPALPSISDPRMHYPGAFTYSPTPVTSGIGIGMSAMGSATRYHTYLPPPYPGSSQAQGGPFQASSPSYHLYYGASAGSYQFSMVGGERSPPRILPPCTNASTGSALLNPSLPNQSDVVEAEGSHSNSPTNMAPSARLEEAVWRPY
UniProt O96013: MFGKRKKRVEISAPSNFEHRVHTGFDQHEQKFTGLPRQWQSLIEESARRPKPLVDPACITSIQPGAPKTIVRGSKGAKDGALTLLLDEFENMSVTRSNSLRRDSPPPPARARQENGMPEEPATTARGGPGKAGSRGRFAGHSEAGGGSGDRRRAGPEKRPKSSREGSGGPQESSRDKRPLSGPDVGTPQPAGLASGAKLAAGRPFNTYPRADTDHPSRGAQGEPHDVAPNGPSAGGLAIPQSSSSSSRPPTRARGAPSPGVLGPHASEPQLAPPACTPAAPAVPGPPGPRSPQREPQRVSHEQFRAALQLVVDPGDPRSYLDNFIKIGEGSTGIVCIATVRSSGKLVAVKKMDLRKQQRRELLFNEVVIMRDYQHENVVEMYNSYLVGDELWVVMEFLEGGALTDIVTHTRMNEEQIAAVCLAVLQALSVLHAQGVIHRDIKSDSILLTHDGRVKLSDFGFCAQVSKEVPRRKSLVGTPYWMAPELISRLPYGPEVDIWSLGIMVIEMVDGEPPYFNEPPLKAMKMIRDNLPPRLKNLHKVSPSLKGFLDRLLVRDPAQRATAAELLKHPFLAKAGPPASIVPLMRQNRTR
UniProt Q13547: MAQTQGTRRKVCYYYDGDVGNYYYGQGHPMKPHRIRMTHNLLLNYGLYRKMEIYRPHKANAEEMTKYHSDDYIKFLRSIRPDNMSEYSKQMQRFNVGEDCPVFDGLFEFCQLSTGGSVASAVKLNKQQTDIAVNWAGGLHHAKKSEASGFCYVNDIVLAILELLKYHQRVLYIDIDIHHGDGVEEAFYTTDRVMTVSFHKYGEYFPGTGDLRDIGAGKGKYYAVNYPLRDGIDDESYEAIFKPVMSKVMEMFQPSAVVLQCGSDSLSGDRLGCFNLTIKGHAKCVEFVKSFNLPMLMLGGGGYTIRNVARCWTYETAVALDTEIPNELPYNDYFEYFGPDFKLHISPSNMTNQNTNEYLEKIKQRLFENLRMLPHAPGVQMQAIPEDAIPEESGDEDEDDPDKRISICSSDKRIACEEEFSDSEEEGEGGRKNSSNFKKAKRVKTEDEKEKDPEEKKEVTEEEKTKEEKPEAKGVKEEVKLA
UniProt Q99873: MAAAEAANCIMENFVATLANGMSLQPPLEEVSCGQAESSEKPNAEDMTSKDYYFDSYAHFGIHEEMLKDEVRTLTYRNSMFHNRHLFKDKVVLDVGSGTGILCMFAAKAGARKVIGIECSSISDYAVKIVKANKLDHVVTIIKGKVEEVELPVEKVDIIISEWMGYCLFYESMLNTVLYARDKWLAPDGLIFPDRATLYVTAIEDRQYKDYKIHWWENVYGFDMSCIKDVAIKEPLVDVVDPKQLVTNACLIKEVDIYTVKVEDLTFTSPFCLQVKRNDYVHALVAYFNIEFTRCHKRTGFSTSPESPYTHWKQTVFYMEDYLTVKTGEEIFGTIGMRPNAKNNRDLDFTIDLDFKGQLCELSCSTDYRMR

What was measured:
[1] = molecular target: Endogenous RUNX1 (human (endogenous in MCF-7 and ZR-75-30)) (UniProt Q01196); assay: co-IP; endogenous proteins; lysates (2 mg total protein) of MCF-7 and ZR-75-30 cells immunoprecipitated with RUNX1 antibodies or IgG, Protein A agarose, overnight 4°C; western blot; also in cells transfected with Flag-PAK4 WT, NE or KM or treated with PF-3758309
Flag-RUNX1 T207D = Flag-RUNX1 T207D (UniProt Q01196); assay: co-IP; MCF-7 and ZR-75-30 cells transfected with Flag-RUNX1 WT, T207A or T207D; immunoprecipitated with Flag antibodies; western blot
Flag-RUNX1 WT = Flag-RUNX1 WT (UniProt Q01196); assay: as above
Flag-RUNX1 T207A = Flag-RUNX1 T207A (UniProt Q01196); assay: as above
[2] = molecular target: Endogenous RUNX1 (human (endogenous in MCF-7 and ZR-75-30)) (UniProt Q01196); assay: co-IP; nuclear and cytoplasmic fractions of MCF-7 cells cultured with E2 (physiological conditions); western blot
[3] = molecular target: Endogenous RUNX1 (human (endogenous in MCF-7 and ZR-75-30)) (UniProt Q01196); assay: co-IP; nuclear and cytoplasmic fractions of MCF-7 cells cultured without E2; western blot
GST-RUNX1 = GST-RUNX1 (UniProt Q01196); assay: pull-down; bacterially expressed GST fusion (glutathione-conjugated Sepharose beads) incubated with the recombinant human partner in vitro; western blot; both purified
GST-PAK4 = GST-PAK4 (UniProt O96013); assay: as above

binding [1]: binds
Substance: Endogenous HDAC1 (from UniProt Q13547 1-482) (enzyme)

binding (GST-RUNX1): binds
Substance: Recombinant human PAK4 (from UniProt O96013 1-591) (enzyme)

Further lines, the substance ahead of its results:

Substance: Endogenous PRMT1 (from UniProt Q99873 1-371) (enzyme)
binding [1]: binds | binding (Flag-RUNX1 T207D): binds | binding (Flag-RUNX1 WT): binds | binding (Flag-RUNX1 T207A): binds

Substance: Endogenous PAK4 (from UniProt O96013 1-591) (enzyme)
binding [2]: binds | binding [1]: binds | binding [3]: no binding (condition: cells cultured without E2)

Substance: Recombinant human RUNX1 (from UniProt Q01196 1-453)
binding (GST-PAK4): binds
